In the BET-seq Pho4 binding data (Le et al. 2018):
Some of the results follow. Values were computed here from the reads of four pooled replicates and scatter widely.

Each sequence was assayed against T1, Pho4 (S. cerevisiae) (UniProt P07270) (assay: relative binding free energy (BET-seq); higher = weaker binding). Settings: reference: library average.
T1 sequence: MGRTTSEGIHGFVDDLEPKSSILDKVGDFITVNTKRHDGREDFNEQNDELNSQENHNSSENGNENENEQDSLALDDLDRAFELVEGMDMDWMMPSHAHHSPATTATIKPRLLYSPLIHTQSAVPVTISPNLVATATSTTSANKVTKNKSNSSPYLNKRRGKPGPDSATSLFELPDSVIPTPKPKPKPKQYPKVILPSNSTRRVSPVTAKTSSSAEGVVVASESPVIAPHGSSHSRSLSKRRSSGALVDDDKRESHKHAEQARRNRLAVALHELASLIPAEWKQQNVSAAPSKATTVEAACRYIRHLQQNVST

Relative binding free energy, -0.22 kcal/mol:
GGCGGCACGTGGGGCT
GCGGCCACGTGGGGAG
CGTTGCACGTGGGAAT

Relative binding free energy, 0.03 kcal/mol:
AGATGCACGTGCGTTG
TTAGACACGTGGTGTT
CCTGTCACGTGGTGGT
AATTACACGTGGTTAG

Relative binding free energy, -0.18 kcal/mol:
GGAGCCACGTGGTATG

Relative binding free energy, -0.32 kcal/mol:
ATTGCCACGTGGTGTA

Relative binding free energy, 0 kcal/mol:
TTGTACACGTGTCTGA
TGTGACACGTGATGAG
GGTAGCACGTGTATTG
CGGGTCACGTGGTGCG

Relative binding free energy, 0.39 kcal/mol:
GTTTTCACGTGCGCTG
CGAATCACGTGAGTGT

Relative binding free energy, -0.25 kcal/mol:
GGAAGCACGTGCGTGT

Relative binding free energy, -0.27 kcal/mol:
TGTCGCACGTGGGCTT
CTTGGCACGTGGGTCA
ACATGCACGTGGGAGT

Relative binding free energy, 0.14 kcal/mol:
ATTGTCACGTGATGGT
CATTTCACGTGTATAT

Relative binding free energy, 0.17 kcal/mol:
ATGGACACGTGTAATA
AGTATCACGTGTCTGT
CGGGTCACGTGATGGA
GCCGTCACGTGGTATT

Relative binding free energy, -0.29 kcal/mol:
AGATGCACGTGGTTAA

Relative binding free energy, 0.34 kcal/mol:
GGGCTCACGTGTGTTT

Relative binding free energy, -0.03 kcal/mol:
AGTAACACGTGGGGTC
TATGTCACGTGGGGAC
GATGGCACGTGCAGTG
TAGCGCACGTGTGGTT
ATTGTCACGTGGTTGC

Relative binding free energy, 0.19 kcal/mol:
GTGTTCACGTGGTAAC

Relative binding free energy, 0.28 kcal/mol:
GAGTTCACGTGCTGGA
ATATTCACGTGTTGTC
GGATTCACGTGGTGTG
CCTTTCACGTGTGTTG
CAATTCACGTGGTTAG

Relative binding free energy, 0.11 kcal/mol:
TTCGCCACGTGAGGGT
TATATCACGTGGGGAG
TTTTGCACGTGTTCGG
AATTCCACGTGGAGGG
CTGATCACGTGTGTAT

Relative binding free energy, 0.12 kcal/mol:
CAAAGCACGTGTTTTT
GTGGTCACGTGGTCCG
TGGCGCACGTGAAGTG
GCAGACACGTGGTGGT
AGTTGCACGTGACGAG
TCGCTCACGTGGGGGG
AGCCGCACGTGAGGGG
TTAGGCACGTGAGGAT
AGACACACGTGTTGGG

Relative binding free energy, 0.29 kcal/mol:
AGGCTCACGTGGTTCG
TGTTTCACGTGTTGGA

Relative binding free energy, 0.36 kcal/mol:
TGAGTCACGTGATTTT
TTCTTCACGTGTCGTG
AGTTTCACGTGAGGGG

Relative binding free energy, 0.35 kcal/mol:
GGGATCACGTGAGGCA
GGTGTCACGTGATTAG

Relative binding free energy, -0.1 kcal/mol:
AGTGGCACGTGGAGCG
ACTAGCACGTGTTTGT

Relative binding free energy, -0.09 kcal/mol:
GGGGCCACGTGTGCGG
TGAAACACGTGGTGCT

Relative binding free energy, 0.38 kcal/mol:
TTATTCACGTGAGGTT

Relative binding free energy, -0.12 kcal/mol:
CGCAGCACGTGGTTTG
ACTGTCACGTGCTGGG

Relative binding free energy, -0.06 kcal/mol:
CGGCACACGTGGGGCG
ATAGGCACGTGTGTCA
TGCGACACGTGGTATT

Relative binding free energy, 0.32 kcal/mol:
TAATACACGTGAGGGG

Relative binding free energy, 0.05 kcal/mol:
AGTTGCACGTGGAATT
CCTGTCACGTGTTTTG
TCTGTCACGTGGATAT
ATAGTCACGTGTCGGA
TGGGACACGTGTTTCT
GGAGGCACGTGTTCTT
CGTTACACGTGCTGTT

Relative binding free energy, -0.08 kcal/mol:
TGTGACACGTGTTGTC
TTCAGCACGTGTGTTG
TTGGGCACGTGTTGGG
AGTCGCACGTGCAGGT
GTCGGCACGTGTGTTT
CCTTGCACGTGGGATG

Relative binding free energy, 0.37 kcal/mol:
GTCTTCACGTGTGGGC

Relative binding free energy, 0.08 kcal/mol:
AGTTGCACGTGTGGAG
GTTACCACGTGGTTAT
TTGGTCACGTGGTTGG
GGTCGCACGTGATTAG
AGGAGCACGTGATTTG

Relative binding free energy, 0.16 kcal/mol:
TTGGTCACGTGTAGGG
ATATACACGTGTAGAT
GTGCTCACGTGGTGTG
GTTGTCACGTGGATTT

Relative binding free energy, -0.23 kcal/mol:
AGTCGCACGTGGGGGA

Relative binding free energy, 0.09 kcal/mol:
GTATGCACGTGACGGT
ATTATCACGTGCGTGT
GGTGTCACGTGGTGGC
TTCAACACGTGGGATG
GTTCTCACGTGGGTTT

Relative binding free energy, 0.22 kcal/mol:
TGAGACACGTGACTGT
AGGGGCACGTGAGGGG
GTTTGCACGTGAGTTA
TTGTGCACGTGAAGAG

Relative binding free energy, -0.21 kcal/mol:
GGTACCACGTGGAGGG
AGGCGCACGTGGGCGA
CTGTGCACGTGGGCTG

Relative binding free energy, -0.14 kcal/mol:
CGGGGCACGTGGGTTC
AAGGACACGTGGGGGA

Relative binding free energy, 0.23 kcal/mol:
ATTTTCACGTGCTTTA
AGTTTCACGTGATGAG
GTTGACACGTGATTGT
TTTTACACGTGCAGGT

Relative binding free energy, 0.1 kcal/mol:
TTTGCCACGTGAGGGG
TGGTGCACGTGTACAA
TTGTGCACGTGTTAAA

Relative binding free energy, 0.2 kcal/mol:
AGGGTCACGTGACGTC
TAATTCACGTGCATTT
TTTGTCACGTGATTTG
GATCTCACGTGTGGGT

Relative binding free energy, -0.11 kcal/mol:
CTTGTCACGTGGTTAG
CGGGACACGTGGGGGA
TCGTGCACGTGTTAGT
GTTGACACGTGCGGGT
TATGGCACGTGCGAGT
TGCTCCACGTGGTGTG
CTAGGCACGTGGGAGT
TTCGGCACGTGCGGCG

Relative binding free energy, 0.27 kcal/mol:
AGGCTCACGTGTTGCG
TTATACACGTGAGATA

Relative binding free energy, 0.02 kcal/mol:
ATGTACACGTGTTAGG
AGTTCCACGTGGTATT
TGCGGCACGTGATTGG
TATGTCACGTGGTATT
GTGTCCACGTGCGTGA
GATATCACGTGGGGTT
AAGTGCACGTGGAAGT

Relative binding free energy, -0.19 kcal/mol:
GGTCCCACGTGGGTTG
GTGGGCACGTGGCAGG
TAGGGCACGTGGTGTT
TCGGGCACGTGCGTGG
TGGGCCACGTGCGGGG
ATTGCCACGTGGGTTG

Relative binding free energy, -0.15 kcal/mol:
TAAGGCACGTGGTAGA
TGAAGCACGTGGGTCG
GGAGGCACGTGTTTGA

Relative binding free energy, -0.2 kcal/mol:
TAGGGCACGTGCCGGG
CTTCGCACGTGGTGTG

Relative binding free energy, 0.15 kcal/mol:
ATAGTCACGTGCTGTT
GGGGACACGTGTGATC
GTTGTCACGTGCTTTC
TAGTTCACGTGCATTG
GCTTTCACGTGGTTGA
ATGGGCACGTGAGGTC
CGGCTCACGTGGGTTT
GGTTGCACGTGTAGTT
GTGCTCACGTGGCGTT

Relative binding free energy, -0.04 kcal/mol:
CGGTCCACGTGGAGTG
CTTGACACGTGGGGAT

Relative binding free energy, 0.07 kcal/mol:
ATAGTCACGTGGTGGG
GTGCGCACGTGTATGT
TTCATCACGTGGAGTT
CGCTGCACGTGTAAGG

Relative binding free energy, 0.44 kcal/mol:
GAGTTCACGTGGAGAT

Relative binding free energy, 0.25 kcal/mol:
TTAGTCACGTGTGGGC
TGTAACACGTGAGGTT
ATGTTCACGTGCGGAA

Relative binding free energy, -0.16 kcal/mol:
ACGAGCACGTGGGGGC
GATGGCACGTGGCAGT

Relative binding free energy, -0.35 kcal/mol:
TTGAGCACGTGGTCTG

Relative binding free energy, -0.17 kcal/mol:
TGGCCCACGTGGGTTT
TTTAACACGTGGGCTT

Relative binding free energy, -0.05 kcal/mol:
TAGCGCACGTGTCAGG
TAGCGCACGTGTAGGG
ATGTGCACGTGTCCGG

Relative binding free energy, -0.01 kcal/mol:
CTGAGCACGTGTGAGG
AAGTGCACGTGATTGA
TTAGACACGTGTATGA
GGTGGCACGTGGTTAT

Relative binding free energy, 0.21 kcal/mol:
AGTAGCACGTGAATTA
ATTTTCACGTGATTAA

Relative binding free energy, 0.06 kcal/mol:
TTTGGCACGTGAACTG
TGTGACACGTGGCGGC
TTTATCACGTGGATGG
GATGACACGTGGTTGT
GAGCGCACGTGTAGGC

Relative binding free energy, -0.24 kcal/mol:
CGGGGCACGTGGGTCG

Relative binding free energy, -0.07 kcal/mol:
TAAAACACGTGGGATG
GGTGCCACGTGTGTTT
ATTTACACGTGCTTTG
TGTTGCACGTGCGTAT
CTTGTCACGTGGGTTA
ATTTCCACGTGGGTAG
GATGTCACGTGGGGTA
CGAGGCACGTGATTGT

Relative binding free energy, 0.04 kcal/mol:
AGGGTCACGTGTCTGA
GGGAACACGTGCTGTA
CTTAGCACGTGTGTGA
GCGGTCACGTGCGTTT

Relative binding free energy, 0.3 kcal/mol:
TATTTCACGTGTTTTG
GAATGCACGTGAGTAT
GCGGGCACGTGAGAGG

Relative binding free energy, -0.02 kcal/mol:
GATGACACGTGTGCGG
GTTGGCACGTGCTGAT
CCGTGCACGTGGAGTG

Relative binding free energy, 0.26 kcal/mol:
GCTTGCACGTGAAGTG
AGGTTCACGTGAGTAA
TTATTCACGTGTGAGG

Relative binding free energy, 0.18 kcal/mol:
GCTGACACGTGGATGG
ATTGACACGTGAATAG

Relative binding free energy, 0.24 kcal/mol:
GAAGTCACGTGATGGT
AGATTCACGTGTATTT
CGATTCACGTGTTGAT

Relative binding free energy, -0.34 kcal/mol:
TTACCCACGTGGGGGG

Relative binding free energy, -0.3 kcal/mol:
ATAGGCACGTGGTGCG

Relative binding free energy, -0.13 kcal/mol:
TGGAGCACGTGGTCGC
TCTAGCACGTGGCGTG
ATTGGCACGTGTACAG
AGATACACGTGGATGG
AGTCGCACGTGGTAAG

Relative binding free energy, 0.01 kcal/mol:
AATGGCACGTGAATGT
TAAAGCACGTGTGTAA
CATATCACGTGGTGTT
GTTAACACGTGGCGGT
GGTGCCACGTGTGGGA
TTGGGCACGTGACGGG

Relative binding free energy, 0.13 kcal/mol:
TAATTCACGTGGTGTG
TTCGTCACGTGTAGTG
TGGGTCACGTGGAGGG
TGGCGCACGTGATGGT
TATCTCACGTGTGTTA
